The whole screen tested about 310,000 compounds, of which about 14,000 (4.5%) showed an effect of 50% or more. The effect is printed as a negative number. The list shows a part of the results.
Molecular target: human ether-à-go-go-related gene (hERG) potassium channel (human, UniProt Q12809)
Assay: primary screen, population patch clamp on CHO cells stably expressing hERG
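Note: peak tail current of the secondary pulse compared with the same well before compound.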

Chain of human ether-à-go-go-related gene (hERG) potassium channel (Q12809 whole entry, looked up): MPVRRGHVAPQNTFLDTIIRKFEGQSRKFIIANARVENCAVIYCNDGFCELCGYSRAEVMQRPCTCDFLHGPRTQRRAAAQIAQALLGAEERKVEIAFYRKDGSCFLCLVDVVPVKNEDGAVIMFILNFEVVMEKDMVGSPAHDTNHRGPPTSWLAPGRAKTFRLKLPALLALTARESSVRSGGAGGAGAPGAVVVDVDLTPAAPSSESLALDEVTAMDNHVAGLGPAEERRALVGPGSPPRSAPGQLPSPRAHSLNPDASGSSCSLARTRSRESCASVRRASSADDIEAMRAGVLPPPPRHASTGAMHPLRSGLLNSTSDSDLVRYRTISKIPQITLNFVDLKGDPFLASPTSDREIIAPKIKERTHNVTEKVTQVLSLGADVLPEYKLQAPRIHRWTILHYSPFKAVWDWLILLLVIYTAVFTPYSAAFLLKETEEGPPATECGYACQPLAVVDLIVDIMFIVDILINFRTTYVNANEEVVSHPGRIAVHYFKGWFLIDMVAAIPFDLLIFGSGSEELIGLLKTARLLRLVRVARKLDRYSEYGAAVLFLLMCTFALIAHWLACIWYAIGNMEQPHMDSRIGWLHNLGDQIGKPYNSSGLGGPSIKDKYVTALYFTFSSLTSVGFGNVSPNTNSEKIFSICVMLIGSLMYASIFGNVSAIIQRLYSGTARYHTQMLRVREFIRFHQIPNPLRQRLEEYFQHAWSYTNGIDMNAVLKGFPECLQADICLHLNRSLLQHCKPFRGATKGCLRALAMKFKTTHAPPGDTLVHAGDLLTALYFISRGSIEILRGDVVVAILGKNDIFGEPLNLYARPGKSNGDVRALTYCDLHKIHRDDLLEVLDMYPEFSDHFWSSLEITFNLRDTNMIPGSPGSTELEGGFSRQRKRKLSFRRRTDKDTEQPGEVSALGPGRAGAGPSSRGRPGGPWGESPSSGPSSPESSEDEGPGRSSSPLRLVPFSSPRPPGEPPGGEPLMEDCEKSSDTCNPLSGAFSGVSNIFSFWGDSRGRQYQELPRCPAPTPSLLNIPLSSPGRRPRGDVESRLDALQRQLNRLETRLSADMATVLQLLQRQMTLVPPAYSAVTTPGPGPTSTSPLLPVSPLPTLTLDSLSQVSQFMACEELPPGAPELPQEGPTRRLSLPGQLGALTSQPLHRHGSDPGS

Compound	hERG current change (%, negative = inhibition) at 10uM
COCc1ccc(C(=O)N2CCCC(N3CCN(c4ccccc4C)CC3)C2)s1 (centres unmarked)	-34.7%
COc1cc(/C(C)=N/NC(=O)CSc2nncn2C)ccc1OCc1ccccc1Cl	-9.45%
CN(C(=O)CSc1nnc(-c2ccccc2)o1)c1c(N)n(Cc2ccccc2)c(=O)[nH]c1=O	12%
COc1ccc(NC(=O)CNS(=O)(=O)c2ccc(Cl)cc2)cc1	3.79%
COc1ccc(CCNC(=O)CCc2nc3ccccc3[nH]2)cc1OC	-7.59%
CCSc1nc(O)c(CC)c(=O)n1C(C)CC (centres unmarked)	-0.9%
CSCCC(NS(=O)(=O)c1cccc(C(F)(F)F)c1)C(=O)Nc1ccccc1N1CCCC1 (centres unmarked)	-8.42%
Cc1ccccc1CS(=O)(=O)c1cn(CC(=O)N2CCC(C)CC2)c2ccccc12	-20.4%
O=[N+]([O-])c1ccc(/C=N/Nc2nc(N3CCCCC3)nc(N3CCCCC3)n2)cc1	19.6%
CCOc1ccc(C)cc1S(=O)(=O)n1cnc2ccccc21	1.89%
O=C(/C=C/N1CCN(Cc2ccccc2)CC1)C(F)(F)F	4.36%
Cc1cnnc2c1-c1no[n+]([O-])c1CC2	4.09%
COc1ccc(COc2ccc3ccc(=O)oc3c2)cc1	9.33%
COc1ccc(-c2nnc(SCC(=O)NCCc3ccccc3)o2)cc1	-2.45%
CCCNC(=S)Nc1ccc(Oc2ccccc2)cc1	-10.8%
Cc1ccc(NC(=O)CN(C)C(=O)Cn2nnc(-c3ccccc3)n2)cc1	2.28%
COc1ccc(N/C=C(\[N+](=O)[O-])S(=O)(=O)c2ccccc2)cc1	17.1%
Cl.O=C(NC1CCN(Cc2ccccc2)CC1)c1cc(-c2ccccn2)nc2ccccc12	-69.4%
Cc1oc(-c2ccc(Cl)cc2)nc1CN1CCCC(C(=O)NCCCN2CCCC2=O)C1 (centres unmarked)	-30.8%
Cc1ccc(C(C)NC(=O)c2c(C)noc2C)cc1C (centres unmarked)	6.76%
CCNC(=O)COC(=O)c1cc(S(=O)(=O)N2CCCc3ccccc32)ccc1Cl	-26.7%
CC(=O)/C(C=Nc1noc(C)c1Br)=C(\C)O	8.12%
O=C(Cc1cn2ccsc2n1)NCc1ccccc1	-0.0153%

Compound	hERG current change (%, negative = inhibition) at 10uM
Cc1cc(C)n(-c2ccc(NC(=O)C3CCCCN3C(=O)c3ccoc3C)cc2)n1 (centres unmarked)	6.75%
COc1cc(Br)cc2cc(C(=O)NCC3CCCO3)c(=O)oc12 (centres unmarked)	-7.72%
CCN(CC)c1ccc(/C=N/Nc2nc(C)cc(C)n2)c(O)c1	-7.99%
Cn1cccc1Cc1nnc(SCC(=O)Nc2ccc(Cl)cc2)n1-c1ccc(F)cc1	-43.9%
CC(C)N1CCN(Cc2cccc(-c3ccco3)c2)CC1CCO (centres unmarked)	-35.9%
OC1CCCCC1	19.4%
CSc1ncc(Cl)c(C(=O)Nc2ccccc2[N+](=O)[O-])n1	18%
O=C(COc1ccc2ccccc2c1)N1CCN(Cc2ccncc2)CC1.O=C(O)C(=O)O	-33.9%
COc1cccc(C(=O)Nc2cccnc2)c1	11.4%
CCN(CC)S(=O)(=O)c1cccc(C(=O)N[C@@H](C)c2nc3ccccc3[nH]2)c1	8.21%
Cc1ccc(N2C(=O)C3ON(c4ccccc4)C(CC(C)C)C3C2=O)cc1 (centres unmarked)	-5.64%
CC(NCC(=O)Nc1ccccc1C(=O)NC1CC1)c1ccccc1Cl (centres unmarked)	-21.6%
Cc1cccc(NS(=O)(=O)c2cc3c4c(c2)CCC(=O)N4CCC3)c1	-21.6%
COc1ccc(-n2cnnc2SCC(=O)N2CCN(c3ccccc3)CC2)cc1	-36.2%
CC1CN(C(=O)COC(=O)c2ccccc2O)CC(C)O1 (centres unmarked)	20.7%
CCCCCCCCCCSc1n[nH]c(N)n1	12.7%
O=C(O)CNC(=O)CC1S/C(=N/N=C/c2ccccc2O)NC1=O (centres unmarked)	-2.35%
COCCCN(C)C1CCN(C(=O)Nc2ccc(F)cc2)CC1	-28.8%
COc1ccc(C2/C=C\CN(S(=O)(=O)c3ccc(C)cc3)[C@H](Cc3ccccc3)C(=O)N2Cc2ccc(F)cc2)cc1 (some centres unmarked)	4.87%
CSc1nsc(SC)c1C(=O)Nc1ccc(C)cc1	6.4%
CCOc1ccc(NC(=O)Cn2nnc3c(cnn3-c3ccc(F)cc3)c2=O)cc1	22.1%
Cc1cc(Nc2ccc(F)cc2F)n2ncnc2n1	1.21%
COc1ccc(OC)c2c1cc(C(=O)N[C@@H](C)C(=O)N[C@@H](C(=O)O)c1ccccc1)n2C	19.2%

Compound	hERG current change (%, negative = inhibition) at 10uM
c1ccc(CCNc2ncnc3c2nnn3Cc2ccccc2)cc1	-5.26%
CCOc1ccc2nc(NCCNC(=O)c3cc(OC)c(OC)c(OC)c3)c(C#N)cc2c1	5.24%
O=S(=O)(NCCCN1CCOCC1)c1ccc(Cl)s1	11.2%
CCOC(=O)CNC(=O)c1cccnc1Oc1ccc(Cl)cc1	8.01%
CCC(C)(C)n1nnnc1C(c1cccs1)N1CCN(c2nc3ccccc3s2)CC1 (centres unmarked)	12.3%
c1ccc(-c2nc(NCc3cccnc3)c3ccccc3n2)cc1	-17%
Clc1cccc(Cl)c1COc1ccccc1CNn1cnnc1	-0.609%
COc1ccc2nc(SCC(=O)NCc3ccccc3)[nH]c2c1	6.73%
CC(C)(C)NC(=O)C(c1ccccc1)N(C(=O)CNC(=O)c1cccs1)c1cccnc1 (centres unmarked)	16.4%
O=C(CCCN1C(=O)/C(=C/c2ccc(F)cc2)SC1=S)NC1CCS(=O)(=O)C1 (centres unmarked)	-6.5%
CC1CCN(c2nc3c(N)ncnc3n2[C@@H]2O[C@H](CO)[C@@H](O)[C@H]2O)CC1	19.5%
CCn1cc(CCC(=O)NCc2ccc(F)cc2)c2ccccc21	-1.22%
COc1ccc(C)cc1NC(=O)C(=O)NNC(=O)c1ccco1	17.6%
CCC(=O)Nc1c(-c2ccccc2Cl)c(=O)c2ccccc2n1CC	19.3%
Cc1ccc(NC(=S)NNC(=O)c2ccc(N3CCOCC3)c([N+](=O)[O-])c2)cc1C	-6.58%
Cc1cccc(N(C(=O)c2cnc3n(c2=O)CCS3)C2CCCCC2)c1	-19.3%
CCc1ccc(CNC(=O)c2ccc3c(c2)NC(=O)C(N2CCOCC2)S3)cc1 (centres unmarked)	-26%
O=c1c2c(n3cnnc3n1-c1ccccc1)-c1ccccc1CC21CCCCC1	-11.8%
CCCCCN(C(=O)CCC(=O)OCC(=O)N(CC)c1ccccc1)c1c(N)n(CCCC)c(=O)[nH]c1=O	7.41%
COc1ccc(-n2c(/C=C/c3ccc(O)c(OC)c3)nc3ccccc3c2=O)cc1	7.85%
Cn1c(CN2CCOCC2)nnc1SCC(N)=O	21.8%
COc1ccc2nc(C)cc(N3CCN(S(=O)(=O)c4ccccc4F)CC3)c2c1	-75.9%
Cc1cccc(C)c1NC(=O)CSc1nnnn1C	-1.61%

Compound	hERG current change (%, negative = inhibition) at 10uM
Cc1cc(SCC(=O)N/N=C/c2ccc(C(=O)O)cc2)nc2ccccc12	-3.4%
CCn1cc(CN2CCC(n3nccc3NC(=O)c3ccc(OC)cc3)CC2)cn1	-4.16%
COc1ccc(CNC(=O)C2CC=CCC2C(=O)O)cc1OC (centres unmarked)	8.31%
Cc1cccc(OCC(=O)N2CCOCC2)c1	15.5%
COc1ccccc1OCc1csc(N)n1	31.5%
COc1ccc(-c2noc(CN(C)Cc3ccccc3)n2)cc1	-6.79%
CCOC(=O)CC(NC(=O)C(CC)c1ccccc1)c1ccccc1Cl (centres unmarked)	-14.5%
CC1CCC(C(C)C)C(OCC(O)CN2CCN(Cc3ccccc3)CC2)C1.Cl (centres unmarked)	-66.5%
CCCCn1c(O)c(N=NC(=O)c2ccccc2NS(=O)(=O)c2cccs2)c2ccccc21	-2.54%
Cc1ccc(OCCN(C)C(=O)CC2C(=O)NCCN2CC(C)(C)C)cc1 (centres unmarked)	4.38%
O=C(CCc1ccccc1)NNC(=O)c1ccccc1F	15.5%
CC(C)c1c(O)nc(SCCN2CCOCC2)[nH]c1=O.Cl	19%
CCC(C)(C(=O)NC1CCCCC1)N(CC1CCCO1)C(=O)c1ccccn1 (centres unmarked)	-63.3%
CC(c1ccncn1)N(C)Cc1nc(-c2ccc(C(F)(F)F)cc2)no1 (centres unmarked)	16.2%
Cc1[nH]c2ccccc2c1C(=O)/C=C/c1ccccc1Cl	12.3%
O=C(NCCN1CCOCC1)c1ccc(/C=C2\Sc3ccccc3N(Cc3ccccc3F)C2=O)cc1	13.7%
CCC1(O)CC(c2ccccc2)=NN1C(=O)c1ccccc1F (centres unmarked)	20.2%
CCOC(=O)c1ccc(NC(c2ccc(N(C)C)cc2)P(=O)(OC(C)C)OC(C)C)cc1 (centres unmarked)	9.62%
CCCc1n[nH]c(=O)c2c1nnn2Cc1ccccc1F	6.71%
O=C1N[C@@H](Cc2cn(S(=O)(=O)c3ccccc3)c3ccccc23)C(=O)N[C@H]1Cc1ccccc1	14.9%
